Reference: the supplement of paper PMC9446081
In all, about 39,000 compounds went through this assay and about 220 (0.56%) showed activity. This is one part of the list.

The compounds below were run on Escherichia coli K-12 BW25113 (assay: relative growth (OD600 normalised to plate interquartile mean) (fraction); higher = less growth inhibition, active = 0.2 or less). Conditions: 50 µM; LB; incubation time: overnight (16-24 h).
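Further: static incubation at 37 °C against the wild-type strain, values averaged over two biological replicates.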

Question: CO[C@H]1CN(C)C(=O)c2ccc(NC(=O)Nc3cccc(Cl)c3)cc2OC[C@@H](C)N(C(=O)Nc2c(C)noc2C)C[C@@H]1C was tested. Which relative growth did it give?
Answer: inactive: 0.972

Question: How did the relative growth turn out when C[C@@H]1CCCCO[C@H](CN(C)S(=O)(=O)c2cccs2)[C@@H](C)CN([C@@H](C)CO)C(=O)c2cc(NS(C)(=O)=O)ccc2O1 was run?
Answer: inactive: 0.891

Question: With CN1CCN(C(=O)C[C@H]2CC[C@H]3[C@@H](COC[C@@H](O)CN3C(=O)Nc3cc(Cl)cc(Cl)c3)O2)CC1 as the compound, how does the relative growth read?
Answer: inactive: 0.957

Question: For Cc1noc(C)c1S(=O)(=O)N(C)C[C@@H]1Oc2ccc(NC(=O)NC3CCCCC3)cc2CC(=O)N([C@H](C)CO)C[C@@H]1C, which relative growth is on record?
Answer: inactive: 1.01

Question: With C[C@H]1CN([C@@H](C)CO)C(=O)c2cc(Br)cnc2O[C@@H]1CN(C)S(C)(=O)=O as the compound, how does the relative growth read?
Answer: inactive: 1.03

Question: C[C@@H]1CCCCO[C@@H](CN(C)C(=O)Cc2ccccc2)[C@H](C)CN([C@@H](C)CO)C(=O)c2cc(NC(=O)Cc3ccccc3)ccc2O1 was tested. Which relative growth did it give?
Answer: inactive: 1.02

Question: Which relative growth does the source give for CC(C)OC(=O)[C@@H](C)Nc1n[nH]c(=O)[nH]c1=O here?
Answer: inactive: 1.04

Question: With C[C@@H]1CN([C@@H](C)CO)C(=O)c2cccc(NC(=O)Nc3ccc(C(F)(F)F)cc3)c2O[C@@H]1CN(C)Cc1ccc(C(=O)Nc2ccccc2N)cc1 as the compound, how does the relative growth read?
Answer: inactive: 1.07

Question: With COc1ccc2c3c(n(c2c1)C)[C@@H](CO)N(C[C@]13CCN(CC1)C(=O)c1ccccn1)C(=O)c1ccccn1 as the compound, how does the relative growth read?
Answer: inactive: 0.987

Question: Which relative growth does the source give for C=CC[n+]1ccccc1/C=N/O here?
Answer: inactive: 0.96

Question: For C[C@H]1CN([C@@H](C)CO)C(=O)c2cc(NC(=O)C3CC3)ccc2O[C@H]1CN(C)S(=O)(=O)c1ccccc1, which relative growth is on record?
Answer: inactive: 0.978

Question: For C[C@@H]1CN([C@@H](C)CO)C(=O)Cc2cc(NC(=O)CCN3CCOCC3)ccc2O[C@@H]1CN(C)S(=O)(=O)c1cccs1, which relative growth is on record?
Answer: inactive: 0.989

Question: With O=C1NC[C@@H](c2ccccc2)OC(=O)[C@H](Cc2ccc(F)cc2)CCC=CC[C@@H]1CC(=O)N(CCO)Cc1ccccc1 as the compound, how does the relative growth read?
Answer: inactive: 1.01

Question: With C[C@@H]1CCCCO[C@@H](CN(C)C(=O)CCC(F)(F)F)[C@H](C)CN([C@@H](C)CO)C(=O)c2cc(NC(=O)c3ccccc3)ccc2O1 as the compound, how does the relative growth read?
Answer: inactive: 1.02

Question: CC(C)C1=CC2=CC[C@H]3[C@](C)(CO)CCC[C@]3(C)[C@@H]2CC1 was tested. Which relative growth did it give?
Answer: inactive: 1.04

Question: With C[C@@H]1CCCCO[C@@H](CN(C)Cc2ccc(C(F)(F)F)cc2)[C@H](C)CN([C@H](C)CO)C(=O)c2cc(NS(=O)(=O)c3ccccc3)ccc2O1 as the compound, how does the relative growth read?
Answer: inactive: 1.02

Question: Which relative growth does the source give for C[C@H]1CCCCO[C@H](CN(C)Cc2ccc(C(=O)O)cc2)[C@@H](C)CN([C@@H](C)CO)C(=O)c2cc(NS(=O)(=O)c3cccs3)ccc2O1 here?
Answer: inactive: 1.04

Question: Which relative growth does the source give for CN1CCN(C(=O)C[C@@H]2CC[C@H](NC(=O)Cc3ccccn3)[C@H](CO)O2)CC1 here?
Answer: inactive: 1

Question: Which relative growth does the source give for C[C@H](CO)N1C[C@H](C)[C@@H](CN(C)S(=O)(=O)c2ccccc2)Oc2ccc(NS(C)(=O)=O)cc2CC1=O here?
Answer: inactive: 0.99

Question: For Cc1noc(C)c1NC(=O)Nc1ccc2c(c1)C(=O)N([C@H](C)CO)C[C@H](C)[C@@H](CN(C)Cc1ccc(Oc3ccccc3)cc1)O2, which relative growth is on record?
Answer: inactive: 0.987

Question: Which relative growth does the source give for COc1ccc(NC(=O)N(C)C[C@H]2Oc3ccc(NC(=O)C4CC4)cc3C(=O)N([C@H](C)CO)C[C@H]2C)cc1 here?
Answer: inactive: 1.01

Question: How did the relative growth turn out when C[C@H](CO)N1C[C@H](C)[C@@H](CN(C)C(=O)Nc2ccccc2)OCCCC[C@H](C)Oc2ccc(NC(=O)NC3CCCCC3)cc2C1=O was run?
Answer: inactive: 1.02

Question: COc1ccc(NC(=O)N(C)C[C@@H]2Oc3ncc(C#CCN(C)C)cc3C(=O)N([C@@H](C)CO)C[C@@H]2C)cc1 was tested. Which relative growth did it give?
Answer: inactive: 1.02

Question: With C[C@H](CO)N1C[C@H](C)[C@@H](CN(C)C(=O)NC2CCCCC2)OCCCC[C@H](C)Oc2ccc(NC(=O)Cc3ccccc3)cc2C1=O as the compound, how does the relative growth read?
Answer: inactive: 0.977

Question: With C[C@H]1CN([C@@H](C)CO)C(=O)Cc2cc(NC(=O)CCCCCC(=O)Nc3ccccc3N)ccc2O[C@@H]1CN(C)C(=O)Nc1ccc(F)cc1 as the compound, how does the relative growth read?
Answer: inactive: 0.985

Question: Which relative growth does the source give for C[C@@H]1CN([C@H](C)CO)C(=O)c2cc(C#Cc3cccnc3)cnc2O[C@@H]1CN(C)S(=O)(=O)c1ccccc1F here?
Answer: inactive: 0.975

Question: How did the relative growth turn out when C[C@H]1CN([C@@H](C)CO)C(=O)c2cc(NC(=O)CCN3CCOCC3)ccc2O[C@@H]1CN(C)Cc1ccncc1 was run?
Answer: inactive: 1.03

Question: For O=C(N[C@H](c1ccc(F)cc1)c1ccc2ccccc2n1)C1CCN(Cc2cccc(C(F)(F)F)c2)CC1, which relative growth is on record?
Answer: inactive: 1.02

Question: C[C@@H]1CN([C@@H](C)CO)C(=O)c2cc(NC(=O)Nc3ccc4c(c3)OCO4)ccc2O[C@@H]1CN(C)Cc1ccc(Cl)c(Cl)c1 was tested. Which relative growth did it give?
Answer: inactive: 1.03

Question: With CCCNC(=O)N(C)C[C@H]1Oc2ncc(-c3ccc(C(=O)N(C)C)cc3)cc2C(=O)N([C@@H](C)CO)C[C@@H]1C as the compound, how does the relative growth read?
Answer: inactive: 0.977

Question: COc1cccc(S(=O)(=O)Nc2ccc3c(c2)C(=O)N(C)C[C@@H](OC)[C@@H](C)CN(C(=O)Cc2cccnc2)[C@@H](C)CO3)c1 was tested. Which relative growth did it give?
Answer: inactive: 1.02

Question: Which relative growth does the source give for CC(C)NC(=O)N[C@@H]1CC[C@H](CCN)O[C@@H]1CO here?
Answer: inactive: 1

Question: With C[C@@H]1CN([C@@H](C)CO)C(=O)c2cc(NC(=O)Nc3ccc(F)cc3)ccc2O[C@@H](C)CCCCO[C@@H]1CN(C)C(=O)Nc1ccc2c(c1)OCO2 as the compound, how does the relative growth read?
Answer: inactive: 1.04

Question: With C[C@H]1CCCCO[C@H](CN(C)C(=O)c2ccccc2)[C@@H](C)CN([C@@H](C)CO)C(=O)c2cc(NS(=O)(=O)c3ccccc3)ccc2O1 as the compound, how does the relative growth read?
Answer: inactive: 0.998

Question: Which relative growth does the source give for C[C@@H]1CN([C@@H](C)CO)C(=O)c2c(c3ccccc3n2C)-c2ccccc2CO[C@@H]1CN(C)S(=O)(=O)c1ccc(Cl)cc1 here?
Answer: inactive: 1.02

Question: How did the relative growth turn out when C[C@@H]1CN([C@H](C)CO)C(=O)c2cccc(NC(=O)C3CC3)c2O[C@H]1CN(C)C(=O)NC1CCCCC1 was run?
Answer: inactive: 1.01

Question: COc1ccccc1NC(=O)Nc1ccc2c(c1)OC[C@@H](C)N(Cc1ccccc1C(=O)O)C[C@@H](C)[C@H](OC)CN(C)C2=O was tested. Which relative growth did it give?
Answer: inactive: 0.997

Question: With C[C@H]1CCCCO[C@H](CN(C)C(=O)NC2CCCCC2)[C@@H](C)CN([C@@H](C)CO)C(=O)c2cc(NC(=O)Nc3ccc4c(c3)OCO4)ccc2O1 as the compound, how does the relative growth read?
Answer: inactive: 1.01

Question: How did the relative growth turn out when C[C@@H]1CN([C@@H](C)CO)C(=O)c2cc(NC(=O)Nc3ccc(C(F)(F)F)cc3)ccc2O[C@H]1CN(C)C(=O)Nc1cccc2ccccc12 was run?
Answer: inactive: 1.01

Question: Which relative growth does the source give for C[C@@H]1CN([C@H](C)CO)C(=O)CCCn2cc(nn2)CO[C@H]1CN(C)C(=O)Nc1cccc2ccccc12 here?
Answer: inactive: 0.992

Question: How did the relative growth turn out when COc1ccc(CN(C)C[C@@H]2Oc3ccc(NC(=O)CCN4CCOCC4)cc3C(=O)N([C@H](C)CO)C[C@H]2C)cc1 was run?
Answer: inactive: 1.03

Question: For Cc1ccc(S(=O)(=O)N(C)C[C@H]2Oc3c(NC(=O)c4cc(C)nn4C)cccc3C(=O)N([C@@H](C)CO)C[C@@H]2C)cc1, which relative growth is on record?
Answer: inactive: 0.98

Question: NCCCCCNC(=O)[C@@H]1C[C@@H]2C(=O)N[C@@H](CCCCN)C(=O)N2[C@@H]1c1cccc(OCCO)c1 was tested. Which relative growth did it give?
Answer: inactive: 1.01

Question: Which relative growth does the source give for CC(C)=CCCC1(C)C=Cc2c(O)c3c(c(CC=C(C)C)c2O1)OC12C(=CCCC1C(C)(C)OC2(CC=C(C)C(=O)O)C(=O)O)C3=O (centres undefined) here?
Answer: inactive: 1.09

Question: C[C@H]1CN([C@@H](C)CO)C(=O)c2cccc(NC(=O)C3CCCCC3)c2O[C@@H]1CN(C)Cc1ccc(Oc2ccccc2)cc1 was tested. Which relative growth did it give?
Answer: inactive: 1.01

Question: Which relative growth does the source give for COc1ccc(S(=O)(=O)N2C[C@H](O)COC[C@@H]3O[C@@H](CC(=O)NCCN4CCCCC4)CC[C@H]32)cc1 here?
Answer: inactive: 1.02

Question: C[C@@H]1CCCCO[C@H](CN(C)C(=O)C2CCCCC2)[C@H](C)CN([C@@H](C)CO)C(=O)c2cc(NC(=O)Nc3ccc(F)cc3)ccc2O1 was tested. Which relative growth did it give?
Answer: inactive: 1.03

Question: How did the relative growth turn out when C[C@@H]1CCCCO[C@@H](CN(C)Cc2ccc(C(=O)Nc3ccccc3N)cc2)[C@@H](C)CN([C@H](C)CO)C(=O)c2cc(NS(=O)(=O)c3ccccc3)ccc2O1 was run?
Answer: inactive: 0.998

Question: How did the relative growth turn out when C[C@H](CO)N1C[C@H](C)[C@@H](CN(C)S(=O)(=O)c2cn(C)cn2)Oc2ccc(NS(=O)(=O)c3ccc(F)cc3)cc2CC1=O was run?
Answer: inactive: 1.02

Question: How did the relative growth turn out when CC(C)CC#Cc1ccc2c(c1)O[C@H](CN(C)C(=O)Cc1ccccn1)[C@H](C)CN([C@H](C)CO)S2(=O)=O was run?
Answer: inactive: 0.963

Question: For C[C@H]1CN([C@@H](C)CO)C(=O)Cc2cc(NC(=O)Cn3cnnn3)ccc2O[C@@H]1CN(C)Cc1ccc(C(=O)Nc2ccccc2N)cc1, which relative growth is on record?
Answer: inactive: 1.02

Question: Which relative growth does the source give for COc1ccc(NC(=O)Nc2ccc3c(c2)CC(=O)N([C@H](C)CO)C[C@@H](C)[C@@H](CN(C)Cc2ccc(C(F)(F)F)cc2)O3)cc1 here?
Answer: inactive: 0.998

Question: How did the relative growth turn out when C[C@@H]1CN([C@@H](C)CO)C(=O)Cc2cc(NC(=O)Nc3cccc4ccccc34)ccc2O[C@H]1CN(C)Cc1ccc(Cl)c(Cl)c1 was run?
Answer: inactive: 0.982

Question: For CC(C)(N)c1ccc(F)cc1, which relative growth is on record?
Answer: inactive: 1.01

Question: For O=C(NO)c1cn(CC(=O)N2CCC3(CC2)C(=O)NCN3c2ccccc2)nn1, which relative growth is on record?
Answer: inactive: 0.94

Question: With CCS(=O)(=O)N1C[C@]2(C1)CN([C@@H](CO)c1[nH]c3cc(ccc3c12)OC)C(=O)Nc1c(noc1C)C as the compound, how does the relative growth read?
Answer: inactive: 1.04

Question: CC(=O)N[C@@H](Cc1ccccc1)C(=O)O was tested. Which relative growth did it give?
Answer: inactive: 1.01

Question: With CO[C@@]12[C@H](COC(N)=O)C3=C(C(=O)C(C)=C(N)C3=O)N1C[C@@H]1N[C@@H]12 as the compound, how does the relative growth read?
Answer: inactive: 1.01

Question: Cc1noc(C)c1NC(=O)N(C)C[C@@H]1OCCCC[C@@H](C)Oc2ccc(NC(=O)c3ccccc3)cc2C(=O)N([C@H](C)CO)C[C@@H]1C was tested. Which relative growth did it give?
Answer: inactive: 1
